According to PubChem BioAssay AID2675 (National Center for Advancing Translational Sciences (NCATS), 2010):
In all, about 280,000 compounds went through this assay and about 100 (0.036%) were called active. The shares of active, inactive and inconclusive entries below differ from those in the screen. The call rests on the fitted dose curve; in most records, active means well fitted inhibition curve with a large enough effect in the signal ratio, with a control signal flat (not every such curve was filed as active); inconclusive means small, poorly fitted or top-dose-only effect, or effect the other way, or a change in a side signal; inactive means no such curve, though single readings can be large or run the other way; the % refers to the signal ratio. A potency beside an inconclusive call is a rough fit, not a confirmed value. A note “side channel” means that the fit belongs to a control or component signal, not to the main read-out.

target: Muscleblind-like protein 1 (Homo sapiens) (UniProt Q9NR56); assay: qHTS Assay for Inhibitors of MBNL1-poly(CUG) RNA binding; conditions: TR-FRET MBNL1-His/biotin-(CUG)12 binding, 665/545 ratio; series mostly up to 57.5 µM
Outline: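 MBNL1-His + Biotin-(CUG)12, cpd titration 92 nM–58 uM; Tb anti-His Ab 0.055 ng/ul, SA-XL665 5 nM (final); 60 min RT; ratiometric 665/545 nm, Ex 340 nm; normalized to buffer and full-complex controls.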
Potency means the concentration at half of the fitted maximal effect; tags describe the fitted curve by direction and shape or compound fluorescence and quenching.

Sequence of UniProt Q9NR56 (Q9NR56 whole entry, looked up): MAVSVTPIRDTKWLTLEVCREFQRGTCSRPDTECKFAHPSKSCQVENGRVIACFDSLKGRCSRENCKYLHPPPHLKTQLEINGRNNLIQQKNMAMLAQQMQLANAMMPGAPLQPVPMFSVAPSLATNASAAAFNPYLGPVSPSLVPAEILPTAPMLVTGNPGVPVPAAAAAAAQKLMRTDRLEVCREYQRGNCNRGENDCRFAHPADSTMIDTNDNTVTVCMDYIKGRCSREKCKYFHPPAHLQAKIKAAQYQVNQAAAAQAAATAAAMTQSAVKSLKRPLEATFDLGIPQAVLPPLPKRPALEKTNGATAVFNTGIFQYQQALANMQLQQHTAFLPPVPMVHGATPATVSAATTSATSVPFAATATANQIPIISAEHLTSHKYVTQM

Question: Which Potency does the source give for `CN(C)c1ccc(N/C=C/C(=O)c2ccco2)cc1` here?
Answer: Its Potency is inconclusive: 5.01 µM [quencher, side channel, partial curve].

Question: For `CCOC(=O)N1CCN(Cc2nc3ccc([N+](=O)[O-])cc3c(=O)n2-c2ccccc2F)CC1`, which Potency is on record?
Answer: The Potency was inconclusive: 8.91 µM [quencher, side channel, full curve].

Question: Which Potency does the source give for `COc1ccc(CCNS(=O)(=O)c2cccc([N+](=O)[O-])c2)cc1OC` here?
Answer: The Potency was inconclusive: 22.4 µM [quencher, side channel, partial curve].

Question: With `C[n+]1c2n(c3ccccc31)N=C(c1ccc(-c3ccccc3)cc1)CS2` as the molecule, how does the Potency read?
Answer: The Potency was inconclusive: 17.8 µM [quencher, side channel, partial curve].

Question: `Cc1ccc(NC(=O)CCCN2C(=O)c3cccc4cccc(c34)C2=O)cc1` was tested. Which Potency did it give?
Answer: Its Potency is “inactive”.

Question: With `Cc1sc(-c2ccncc2)nc1OC(=O)c1ccc(Cl)cc1` as the molecule, how does the Potency read?
Answer: Its Potency is inconclusive: 12.6 µM [quencher, side channel, partial curve].

Question: With `Cc1ccc(OCc2nnc(SCCN3CCOCC3)n2C)cc1` as the molecule, how does the Potency read?
Answer: The Potency was “inactive”.

Question: For `CCOC(=O)C1=C(O)/C(=C/c2ccc(-c3ccccc3C(=O)O)o2)SC1=Nc1ccc(C)cc1`, which Potency is on record?
Answer: The Potency was inconclusive: 7.08 µM [quencher, side channel, partial curve].

Question: How did the Potency turn out when `O=C(/C=C/c1ccc(Cl)cc1)Nc1nccs1` was run?
Answer: The Potency was “inactive”.

Question: For `Cc1ccc(S(=O)(=O)N=Nc2c(O)[nH]c3ccccc23)cc1`, which Potency is on record?
Answer: The Potency was inconclusive: 22.4 µM [quencher, single point].

Question: How did the Potency turn out when `Cc1cc(C)n2nc(SCC(=O)c3ccccc3)nc2n1` was run?
Answer: The Potency was “inactive”.

Question: For `CCOc1ccc(NS(=O)(=O)c2ccc(-c3ccc(=O)[nH]n3)o2)cc1`, which Potency is on record?
Answer: The Potency was inconclusive: 25.1 µM [quencher, side channel, partial curve].

Question: Which Potency does the source give for `O=C(COc1ccc([N+](=O)[O-])cc1)NNC(=O)Nc1cccc(F)c1` here?
Answer: Its Potency is inconclusive: 28.2 µM [quencher, side channel, single point].

Question: For `COc1ccc(N2CCN(c3nc4ccc(C)cn4c(=O)c3C=O)CC2)cc1`, which Potency is on record?
Answer: The Potency was inconclusive: 8.91 µM [quencher, side channel, partial curve].

Question: Which Potency does the source give for `CCOC(=O)c1sc(=S)n(-c2ccc3c(c2)OCO3)c1N` here?
Answer: The Potency was inconclusive: 15.8 µM [quencher, side channel, partial curve].

Question: For `O=C(C1CCCN(S(=O)(=O)c2cccc3nonc23)C1)N1CCN(c2ccccc2Cl)CC1` (stereo unspecified), which Potency is on record?
Answer: Its Potency is inconclusive: 6.31 µM [quencher, side channel, full curve].

Question: For `COc1ccc([N+](=O)[O-])cc1NC(=O)C(C)OC(=O)c1cccnc1Cl` (stereo unspecified), which Potency is on record?
Answer: Its Potency is inconclusive: 11.2 µM [quencher, side channel, partial curve].

Question: Which Potency does the source give for `Cc1ccc(S(=O)(=O)N(CC(=O)N=Nc2c(O)[nH]c3ccccc23)c2cccc(C)c2)cc1` here?
Answer: Its Potency is inconclusive: 17.8 µM [quencher, side channel, partial curve].

Question: Which Potency does the source give for `Nc1n[nH]c(N)c1N=Nc1ccc2c(c1)OCO2` here?
Answer: Its Potency is inconclusive: 17.8 µM [quencher, side channel, partial curve].

Question: How did the Potency turn out when `CCCCNC(=O)C(NS(=O)(=O)c1cccc2nsnc12)c1ccccc1` (stereo unspecified) was run?
Answer: The Potency was inconclusive: 7.94 µM [quencher, side channel, partial curve].

Question: With `COCCNS(=O)(=O)c1ccc2c(c1)C(=NO)c1cc(S(=O)(=O)NCCOC)ccc1-2` as the molecule, how does the Potency read?
Answer: Its Potency is inconclusive: 20 µM [quencher, side channel, partial curve].

Question: With `CCN(CC)C(=S)SCC(=O)c1ccc(Br)cc1` as the molecule, how does the Potency read?
Answer: The Potency was inconclusive: 794 µM [inhibitor, partial curve, poor fit].

Question: `COc1cc(C(=O)NCCCNc2ccc([N+](=O)[O-])cc2)cc(OC)c1OC` was tested. Which Potency did it give?
Answer: The Potency was inconclusive: 15.8 µM [quencher, side channel, partial curve].

Question: How did the Potency turn out when `Cc1cccc(C(=O)NNC(=O)c2ccccc2[N+](=O)[O-])c1` was run?
Answer: The Potency was inconclusive: 12.6 µM [quencher, side channel, partial curve].

Question: How did the Potency turn out when `CNC(=O)CSc1nnc(COc2ccc([N+](=O)[O-])cc2)n1C` was run?
Answer: Its Potency is inconclusive: 17.8 µM [quencher, side channel, partial curve].

Question: How did the Potency turn out when `COc1ccc(N(CC(=O)Nc2cc([N+](=O)[O-])ccc2C)S(C)(=O)=O)cc1OC` was run?
Answer: Its Potency is inconclusive: 15.8 µM [quencher, side channel, partial curve].

Question: `CS(=O)(=O)N1CCN(c2ccc([N+](=O)[O-])c(NCc3ccccc3)c2)CC1` was tested. Which Potency did it give?
Answer: Its Potency is inconclusive: 11.2 µM [quencher, side channel, partial curve].

Question: With `O=C(CCSc1ccc(Cl)cc1)c1ccco1` as the molecule, how does the Potency read?
Answer: The Potency was “inactive”.

Question: With `O=C(N/N=C/c1ccco1)c1ccc(NC(=O)c2ccc(Cl)cc2)cc1` as the molecule, how does the Potency read?
Answer: Its Potency is “inactive”.

Question: `CCOC(=O)NN1C(=O)c2ccccc2NC1c1cccs1` (stereo unspecified) was tested. Which Potency did it give?
Answer: Its Potency is “inactive”.

Question: Which Potency does the source give for `O=C(Oc1ccc(=O)n(-c2ccccc2)n1)c1ccccc1` here?
Answer: The Potency was “inactive”.

Question: With `O=C(CSc1ccsc1[N+](=O)[O-])Nc1cc(F)ccc1F` as the molecule, how does the Potency read?
Answer: The Potency was inconclusive: 8.91 µM [quencher, side channel, partial curve].

Question: For `O=S(=O)(Nc1nc2ccccc2nc1Nc1ccc(N2CCOCC2)cc1)c1cc(Cl)ccc1Cl`, which Potency is on record?
Answer: The Potency was “inactive”.

Question: `O=C(COc1ccc2ccccc2c1)N1CCN(C(=O)c2ccc([N+](=O)[O-])cc2)CC1` was tested. Which Potency did it give?
Answer: The Potency was inconclusive: 22.4 µM [quencher, side channel, partial curve].

Question: `O=C(C1CCN(C2CC(=O)N(c3ccc(F)cc3)C2=O)CC1)N1CCOCC1` (stereo unspecified) was tested. Which Potency did it give?
Answer: The Potency was “inactive”.

Question: For `Cc1c(NC(=O)CN2CCN(c3ccc([N+](=O)[O-])cc3)CC2)c(=O)n(-c2ccccc2)n1C`, which Potency is on record?
Answer: The Potency was inconclusive: 14.1 µM [quencher, side channel, partial curve].

Question: How did the Potency turn out when `CC(C)Cn1c(N)c(C(=O)CSc2ccc3c(c2)OCCO3)c(=O)n(C)c1=O` was run?
Answer: Its Potency is “inactive”.

Question: For `CCOC(=O)c1c(NC(=O)c2cccs2)sc2c1CCC2`, which Potency is on record?
Answer: The Potency was “inactive”.

Question: With `Cc1cccc(NC(=O)CSc2nnc(-c3ccco3)c(-c3ccco3)n2)c1` as the molecule, how does the Potency read?
Answer: The Potency was inconclusive: 25.1 µM [quencher, side channel, single point].

Question: How did the Potency turn out when `Cc1cccn2c(=O)c3cc(C#N)c(=NC(=O)c4ccco4)n(Cc4ccco4)c3nc12` was run?
Answer: Its Potency is inconclusive: 12.6 µM [quencher, side channel, partial curve].

Question: Which Potency does the source give for `O=C(Nc1cccc2c1CCCC2)c1cc([N+](=O)[O-])ccc1Cl` here?
Answer: The Potency was inconclusive: 14.1 µM [quencher, side channel, partial curve].

Question: How did the Potency turn out when `COc1ccc(C2/C(=C(/O)c3ccc(Br)cc3)C(=O)C(=O)N2C)cc1` (stereo unspecified) was run?
Answer: Its Potency is inconclusive: 25.1 µM [quencher, single point].

Question: `COCCNC(=O)c1ccc2c(=O)n(CCOC)c(=O)[nH]c2c1` was tested. Which Potency did it give?
Answer: The Potency was “inactive”.

Question: For `O=C(CNc1ccccc1)N/N=C/c1cc([N+](=O)[O-])ccc1N1CCCC1`, which Potency is on record?
Answer: The Potency was inconclusive: 2.82 µM [quencher, side channel, full curve, poor fit].

Question: Which Potency does the source give for `Cc1c(/C=N/O)c2ccccn2c1C=O` here?
Answer: Its Potency is “inactive”.

Question: How did the Potency turn out when `CCCC(=O)Nc1cc(S(=O)(=O)N(CC)CC)ccc1Cl` was run?
Answer: The Potency was inconclusive: 39.8 µM [fluorescent, side channel, single point].

Question: How did the Potency turn out when `CCOc1ccc(C(=O)NCC2OCCc3ccccc32)cc1` (stereo unspecified) was run?
Answer: Its Potency is inconclusive: 0.708 µM [quencher, side channel, full curve, poor fit].

Question: With `CC(C)Oc1ccc(-c2cc(C(=O)NCCN3CCOCC3)c3ccccc3n2)cc1` as the molecule, how does the Potency read?
Answer: The Potency was inconclusive: 25.1 µM [quencher, side channel, single point].

Question: Which Potency does the source give for `COCCNS(=O)(=O)c1ccc2c3c(cccc13)C(=O)N2C` here?
Answer: Its Potency is inconclusive: 3.16 µM [quencher, side channel, partial curve].

Question: Which Potency does the source give for `CC(=O)COc1ccc2cc(-c3ccccc3)c(=O)oc2c1` here?
Answer: Its Potency is inconclusive: 3.98 µM [quencher, side channel, full curve, poor fit].

Question: For `CSCC[C@H](NC(=O)COc1cc2c(c3oc(=O)c(C)c(C)c13)CCC(C)(C)O2)C(=O)O`, which Potency is on record?
Answer: The Potency was “inactive”.

Question: Which Potency does the source give for `CCOC(=O)c1cnc2c(OC)cccc2c1N1CCN(c2ccccc2OC)CC1` here?
Answer: The Potency was inconclusive: 20 µM [quencher, side channel, partial curve].

Question: `O=C(CSc1nnc(-c2ccc(O)cc2)n1Cc1ccco1)c1cccs1` was tested. Which Potency did it give?
Answer: The Potency was “inactive”.

Question: With `O=C(NC1(O)C(=O)c2ccccc2C1=O)c1ccc(C(F)(F)F)cc1` as the molecule, how does the Potency read?
Answer: The Potency was inconclusive: 10 µM [quencher, side channel, full curve, poor fit].

Question: With `CS(=O)(=O)c1ccc(Sc2nc3ccccc3s2)c([N+](=O)[O-])c1` as the molecule, how does the Potency read?
Answer: Its Potency is inconclusive: 31.6 µM [quencher, side channel, single point].

Question: `COC(=O)/C=C\C(=O)Nc1cccc([N+](=O)[O-])c1` was tested. Which Potency did it give?
Answer: Its Potency is inconclusive: 11.2 µM [quencher, partial curve].

Question: Which Potency does the source give for `COc1ccccc1N=NC1C(=O)N(C(N)=S)N=C1C` (stereo unspecified) here?
Answer: Its Potency is inconclusive: 15.8 µM [quencher, partial curve].

Question: Which Potency does the source give for `Cc1nc2c(c3c1[nH]c1ccccc13)C(O)CC(C)(C)C2` (stereo unspecified) here?
Answer: The Potency was inconclusive: 31.6 µM [quencher, side channel, partial curve].

Question: How did the Potency turn out when `CCN(CC)CCNc1ccnc2cc(Cl)ccc12` was run?
Answer: The Potency was inconclusive: 3.16 µM [quencher, side channel, single point].

Question: How did the Potency turn out when `O=C(c1cc([N+](=O)[O-])ccc1N1CCCC1)N1CCCC1` was run?
Answer: Its Potency is inconclusive: 12.6 µM [quencher, side channel, partial curve].

Question: How did the Potency turn out when `CCn1nc(NC(=O)c2ccncc2)c2cc3ccc(C)cc3nc21` was run?
Answer: Its Potency is inconclusive: 7.94 µM [quencher, side channel, full curve, poor fit].
